Reference: the supplement of paper PMC10126150
Sequences with one replicate were seen in a single cluster, so their values are uncertain.
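Note: ATP exposure 15 min at 22 °C before imaging.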

What follows are sequences tested on ATP (assay: switch fluorescence ratio, 500 uM ATP over buffer (Cy3 cluster intensity, sum of 5 cycles each) (fold (ratio)); higher = stronger signal-on switching upon ATP binding; sequences stand for … in TCGTCGGCAGCGTCAGATGTGTATAAGAGACAGTTTTTTTTTTTTTTTTTTTTTTTTT…TC). Settings: aptamer strand: ATP DNA aptamer (quencher-CACCTGGGGGAGTATTGCGGAGGAAGG + anchor), 100 nM annealed; ATP concentration: 500 uM; one replicate.
Method in brief: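 Cy3-labelled switching-strand clusters on a modified Illumina MiSeq flow-cell were annealed to 100 nM quencher-labelled ATP aptamer, imaged in selection buffer, then imaged after 15 min with 500 uM ATP at 22 °C. Five buffer/ATP cycles ran, with NaOH stripping and re-annealing between them. The fluorescence ratio is summed target-cycle over summed buffer-cycle Cy3 intensity per cluster, averaged per switch-domain sequence. Clusters outside 100-1000 RFU were excluded.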
CCAACGTTCA was tested, and the switch fluorescence ratio was 1.07.
CCAAGAGGTA showed a switch fluorescence ratio of 1.02.
CCAAGATGTA showed a switch fluorescence ratio of 0.997.
In the case of CCAAGCGGCT, the switch fluorescence ratio is reported as 1.03.
Sequence CCAAGCTCGA has a switch fluorescence ratio of 1.11.
CCAAGGAAAT was tested, and the switch fluorescence ratio was 1.03.
Sequence CCAAGGAGTT has a switch fluorescence ratio of 0.986.
Work on CCAAGGGTCA yielded a switch fluorescence ratio of 1.03.
Work on CCAAGTACTC yielded a switch fluorescence ratio of 1.6.
For CCAAGTAGGT, the switch fluorescence ratio was 0.956.
With CCAATCACAT the switch fluorescence ratio was 1.02.
In the case of CCAATCCGGT, the switch fluorescence ratio is reported as 0.969.
In the case of CCAATCCTGA, the switch fluorescence ratio is reported as 1.07.
Work on CCAATCTAGA yielded a switch fluorescence ratio of 0.996.
For CCAATCTTGC, the switch fluorescence ratio was 1.14.
With CCAATGAG the switch fluorescence ratio was 1.05.
Sequence CCAATGGGAG has a switch fluorescence ratio of 1.02.
Sequence CCAATGTTTG has a switch fluorescence ratio of 1.02.
Work on CCAATTGAGT yielded a switch fluorescence ratio of 1.07.
With CCAATTTT the switch fluorescence ratio was 1.01.
CCACAAGGCT gave a switch fluorescence ratio of 1.65.
CCACAAGTAA was tested, and the switch fluorescence ratio was 1.41.
Sequence CCACAATTAG has a switch fluorescence ratio of 1.7.
For CCACAGACTT, the switch fluorescence ratio was 1.15.
Sequence CCACAGATTT has a switch fluorescence ratio of 1.13.
Sequence CCACAGCGTT has a switch fluorescence ratio of 1.75.
For CCACATTTGG, the switch fluorescence ratio was 1.05.
CCACCAACGG showed a switch fluorescence ratio of 1.06.
For CCACCAGACT, the switch fluorescence ratio was 1.2.
For CCACCGTGCT, the switch fluorescence ratio was 1.25.
Work on CCACCTCAGT yielded a switch fluorescence ratio of 1.23.
For CCACGGCGGC, the switch fluorescence ratio was 1.35.
CCACGGGATA showed a switch fluorescence ratio of 1.09.
CCACGTGGCC was tested, and the switch fluorescence ratio was 1.01.
With CCACTAGCAT the switch fluorescence ratio was 2.63.
For CCACTCTTGA, the switch fluorescence ratio was 1.
For CCACTGCGGT, the switch fluorescence ratio was 1.81.
CCACTTACCA showed a switch fluorescence ratio of 1.23.
Work on CCAGAAAGCA yielded a switch fluorescence ratio of 1.06.
With CCAGAAAGGT the switch fluorescence ratio was 1.03.
For CCAGAAATTA, the switch fluorescence ratio was 1.
CCAGAAGTGC was tested, and the switch fluorescence ratio was 1.39.
With CCAGACGTAA the switch fluorescence ratio was 2.88.
With CCAGACTTTG the switch fluorescence ratio was 0.942.
In the case of CCAGAGGGAC, the switch fluorescence ratio is reported as 0.987.
CCAGATAGGG gave a switch fluorescence ratio of 1.04.
With CCAGCAGATA the switch fluorescence ratio was 1.26.
Sequence CCAGCATCTT has a switch fluorescence ratio of 1.04.
CCAGCGAGTA gave a switch fluorescence ratio of 1.04.
For CCAGCGATTA, the switch fluorescence ratio was 1.51.
CCAGCGCCCG gave a switch fluorescence ratio of 1.01.
For CCAGCGCTGG, the switch fluorescence ratio was 1.
In the case of CCAGCTACAT, the switch fluorescence ratio is reported as 1.07.
In the case of CCAGCTTTGA, the switch fluorescence ratio is reported as 1.02.
In the case of CCAGGAAAGG, the switch fluorescence ratio is reported as 1.08.
With CCAGGACGGT the switch fluorescence ratio was 0.984.
CCAGGGTGAG showed a switch fluorescence ratio of 1.26.
CCAGGTACAG showed a switch fluorescence ratio of 1.09.
CCAGTAAAG was tested, and the switch fluorescence ratio was 1.02.
Work on CCAGTGATCA yielded a switch fluorescence ratio of 0.985.
Work on CCAGTTCAGT yielded a switch fluorescence ratio of 0.998.
With CCAGTTTCGA the switch fluorescence ratio was 1.02.
CCATACTGCA was tested, and the switch fluorescence ratio was 1.21.
For CCATAGTTTT, the switch fluorescence ratio was 1.01.
Sequence CCATATAATG has a switch fluorescence ratio of 0.953.
With CCATCACAT the switch fluorescence ratio was 0.996.
CCATCGGT was tested, and the switch fluorescence ratio was 0.995.
CCATCGTTT showed a switch fluorescence ratio of 1.04.
With CCATCTGGAG the switch fluorescence ratio was 1.03.
Work on CCATCTGGGC yielded a switch fluorescence ratio of 1.01.
Sequence CCATCTGTGC has a switch fluorescence ratio of 1.09.
CCATGAGGCG showed a switch fluorescence ratio of 1.03.
CCATGATGCG gave a switch fluorescence ratio of 1.1.
CCATGATTAA gave a switch fluorescence ratio of 0.986.
Work on CCATGCACCT yielded a switch fluorescence ratio of 1.15.
With CCATGCAGCA the switch fluorescence ratio was 1.04.
In the case of CCATGCCTCT, the switch fluorescence ratio is reported as 1.01.
For CCATGGGTTA, the switch fluorescence ratio was 0.992.
For CCATGTCGTC, the switch fluorescence ratio was 1.01.
CCATGTTCTG was tested, and the switch fluorescence ratio was 0.947.
CCATTGACTA was tested, and the switch fluorescence ratio was 1.06.
In the case of CCATTGGTGT, the switch fluorescence ratio is reported as 1.22.
With CCATTGTCTC the switch fluorescence ratio was 1.08.
Work on CCATTTATCG yielded a switch fluorescence ratio of 0.985.
Sequence CCATTTATGG has a switch fluorescence ratio of 1.02.
Sequence CCCAAAGTT has a switch fluorescence ratio of 1.01.
In the case of CCCAACGTAG, the switch fluorescence ratio is reported as 1.03.
CCCAAGGCCC was tested, and the switch fluorescence ratio was 1.03.
CCCAAGGTC was tested, and the switch fluorescence ratio was 1.24.
For CCCAATATCT, the switch fluorescence ratio was 1.88.
CCCAATATGC was tested, and the switch fluorescence ratio was 2.56.
For CCCAATCAGT, the switch fluorescence ratio was 0.986.
CCCAGTAATT gave a switch fluorescence ratio of 1.14.
CCCATAGAGC was tested, and the switch fluorescence ratio was 1.06.
Work on CCCATCGCTG yielded a switch fluorescence ratio of 1.31.
In the case of CCCATCGTAT, the switch fluorescence ratio is reported as 1.02.
Sequence CCCATGTGCT has a switch fluorescence ratio of 1.73.
Sequence CCCATGTTCC has a switch fluorescence ratio of 1.16.
CCCATTAATT was tested, and the switch fluorescence ratio was 1.42.
Work on CCCATTATTA yielded a switch fluorescence ratio of 1.06.
CCCATTCTCA showed a switch fluorescence ratio of 1.02.
CCCATTGGCT was tested, and the switch fluorescence ratio was 1.02.
CCCCAACCGG gave a switch fluorescence ratio of 1.01.
CCCCAATGTT was tested, and the switch fluorescence ratio was 1.11.
Work on CCCCACACCC yielded a switch fluorescence ratio of 1.58.
In the case of CCCCACGGGC, the switch fluorescence ratio is reported as 1.35.
CCCCAGCGTG was tested, and the switch fluorescence ratio was 5.91.
Sequence CCCCCCTGGG has a switch fluorescence ratio of 5.46.
In the case of CCCCGCCGGC, the switch fluorescence ratio is reported as 1.55.
In the case of CCCCGCCTCG, the switch fluorescence ratio is reported as 1.83.
For CCCCGGCTAT, the switch fluorescence ratio was 3.66.
In the case of CCCCGGTATC, the switch fluorescence ratio is reported as 4.81.
In the case of CCCCGTCCTG, the switch fluorescence ratio is reported as 1.06.
CCCCGTCGGT showed a switch fluorescence ratio of 1.39.
CCCCGTGATG gave a switch fluorescence ratio of 3.06.
Work on CCCCGTTGCG yielded a switch fluorescence ratio of 1.07.
For CCCCTAACAC, the switch fluorescence ratio was 1.14.
CCCCTACAGG gave a switch fluorescence ratio of 1.24.
CCCCTATGCA was tested, and the switch fluorescence ratio was 1.14.
Work on CCCCTTCTCG yielded a switch fluorescence ratio of 1.28.
CCCCTTTCAA gave a switch fluorescence ratio of 1.05.
CCCGAAACTT gave a switch fluorescence ratio of 1.11.
In the case of CCCGATCCAT, the switch fluorescence ratio is reported as 0.973.
For CCCGATCGGA, the switch fluorescence ratio was 0.965.
CCCGCCTAAG showed a switch fluorescence ratio of 1.16.
CCCGCGGGAT was tested, and the switch fluorescence ratio was 1.01.
CCCGGAATCC showed a switch fluorescence ratio of 1.29.
With CCCGGATTAA the switch fluorescence ratio was 1.04.
With CCCGGGGACC the switch fluorescence ratio was 1.04.
For CCCGGTCCCT, the switch fluorescence ratio was 1.07.
CCCGGTCTTG was tested, and the switch fluorescence ratio was 0.984.
Sequence CCCGGTTTTC has a switch fluorescence ratio of 1.65.
In the case of CCCGTAAAGC, the switch fluorescence ratio is reported as 3.69.
For CCCGTAGGGA, the switch fluorescence ratio was 1.01.
Work on CCCGTAGTCT yielded a switch fluorescence ratio of 1.07.
For CCCGTGGGTG, the switch fluorescence ratio was 3.42.
In the case of CCCGTGTCCT, the switch fluorescence ratio is reported as 1.01.
CCCGTTAACG gave a switch fluorescence ratio of 0.988.
CCCGTTCCC gave a switch fluorescence ratio of 1.1.
For CCCGTTGTGG, the switch fluorescence ratio was 1.04.
For CCCGTTTGCC, the switch fluorescence ratio was 0.888.
CCCTAATACA was tested, and the switch fluorescence ratio was 1.1.
Sequence CCCTACCCGA has a switch fluorescence ratio of 1.06.
With CCCTATAAAC the switch fluorescence ratio was 1.02.
CCCTCCTTAA showed a switch fluorescence ratio of 1.42.
CCCTGAAACT gave a switch fluorescence ratio of 1.04.
For CCCTGATTCA, the switch fluorescence ratio was 1.02.
For CCCTGATTTC, the switch fluorescence ratio was 1.
In the case of CCCTGCCGTC, the switch fluorescence ratio is reported as 0.955.
Work on CCCTGGCGTG yielded a switch fluorescence ratio of 1.2.
CCCTGGTAGA showed a switch fluorescence ratio of 1.07.
Sequence CCCTGTGCTG has a switch fluorescence ratio of 1.07.
Work on CCCTTAGCGG yielded a switch fluorescence ratio of 1.04.
For CCCTTCTGCA, the switch fluorescence ratio was 1.06.
CCCTTGAACA showed a switch fluorescence ratio of 1.02.
With CCGAAACCAG the switch fluorescence ratio was 1.13.
In the case of CCGAAAGAGG, the switch fluorescence ratio is reported as 1.03.
For CCGAACAGCA, the switch fluorescence ratio was 3.64.
With CCGAACAGCT the switch fluorescence ratio was 1.7.
Sequence CCGAACCCGA has a switch fluorescence ratio of 1.55.
For CCGAAGTCTG, the switch fluorescence ratio was 2.61.
In the case of CCGAATTTTG, the switch fluorescence ratio is reported as 0.968.
In the case of CCGACACTGG, the switch fluorescence ratio is reported as 1.27.
Sequence CCGACATCGA has a switch fluorescence ratio of 2.96.
CCGACATGCT gave a switch fluorescence ratio of 3.28.
CCGACCCTCA showed a switch fluorescence ratio of 2.31.
Work on CCGACGGACA yielded a switch fluorescence ratio of 3.73.
In the case of CCGACTGATA, the switch fluorescence ratio is reported as 2.02.
With CCGAGATGAC the switch fluorescence ratio was 2.89.
With CCGAGTGCG the switch fluorescence ratio was 1.25.
CCGAGTTATT was tested, and the switch fluorescence ratio was 1.13.
CCGAGTTTTA gave a switch fluorescence ratio of 1.26.
With CCGATAAGAT the switch fluorescence ratio was 1.61.
CCGATAAGGT was tested, and the switch fluorescence ratio was 1.1.
With CCGATACGAG the switch fluorescence ratio was 3.47.
With CCGATATAAA the switch fluorescence ratio was 1.1.
CCGATCAAGG gave a switch fluorescence ratio of 1.29.
CCGATCTATG was tested, and the switch fluorescence ratio was 1.06.
In the case of CCGATGACGT, the switch fluorescence ratio is reported as 1.06.
With CCGATTTAGC the switch fluorescence ratio was 1.24.
CCGATTTTTG gave a switch fluorescence ratio of 0.971.
With CCGCATCCTG the switch fluorescence ratio was 2.55.
For CCGCATCGTC, the switch fluorescence ratio was 2.86.
For CCGCATTCCA, the switch fluorescence ratio was 3.42.
For CCGCCATGCA, the switch fluorescence ratio was 2.72.
For CCGCCTGATG, the switch fluorescence ratio was 1.13.
CCGCGTGGCG was tested, and the switch fluorescence ratio was 1.02.
CCGCTACGGG was tested, and the switch fluorescence ratio was 1.92.
Sequence CCGCTGGTCT has a switch fluorescence ratio of 1.32.
For CCGCTTGTGA, the switch fluorescence ratio was 1.15.
CCGGAATAGG showed a switch fluorescence ratio of 2.22.
In the case of CCGGAGGCCA, the switch fluorescence ratio is reported as 1.29.
For CCGGAGGCTG, the switch fluorescence ratio was 1.04.
Work on CCGGCATTTT yielded a switch fluorescence ratio of 1.12.
CCGGCGGCAC was tested, and the switch fluorescence ratio was 4.47.
CCGGGACGAC gave a switch fluorescence ratio of 1.67.
CCGGGCACTG was tested, and the switch fluorescence ratio was 1.17.
For CCGGGCCGCT, the switch fluorescence ratio was 1.08.
Sequence CCGGGCTTGT has a switch fluorescence ratio of 1.06.
For CCGGGGACGG, the switch fluorescence ratio was 1.03.
